About 2,200 (0.71%) of roughly 310,000 compounds showed an effect of 50% or more. The effect is printed as a negative number. The list shows a part of the results.
biological target: human ether-à-go-go-related gene (hERG) potassium channel (human, UniProt Q12809); experiment: primary screen, population patch clamp on CHO cells stably expressing hERG
Sequence (Q12809 whole entry, looked up): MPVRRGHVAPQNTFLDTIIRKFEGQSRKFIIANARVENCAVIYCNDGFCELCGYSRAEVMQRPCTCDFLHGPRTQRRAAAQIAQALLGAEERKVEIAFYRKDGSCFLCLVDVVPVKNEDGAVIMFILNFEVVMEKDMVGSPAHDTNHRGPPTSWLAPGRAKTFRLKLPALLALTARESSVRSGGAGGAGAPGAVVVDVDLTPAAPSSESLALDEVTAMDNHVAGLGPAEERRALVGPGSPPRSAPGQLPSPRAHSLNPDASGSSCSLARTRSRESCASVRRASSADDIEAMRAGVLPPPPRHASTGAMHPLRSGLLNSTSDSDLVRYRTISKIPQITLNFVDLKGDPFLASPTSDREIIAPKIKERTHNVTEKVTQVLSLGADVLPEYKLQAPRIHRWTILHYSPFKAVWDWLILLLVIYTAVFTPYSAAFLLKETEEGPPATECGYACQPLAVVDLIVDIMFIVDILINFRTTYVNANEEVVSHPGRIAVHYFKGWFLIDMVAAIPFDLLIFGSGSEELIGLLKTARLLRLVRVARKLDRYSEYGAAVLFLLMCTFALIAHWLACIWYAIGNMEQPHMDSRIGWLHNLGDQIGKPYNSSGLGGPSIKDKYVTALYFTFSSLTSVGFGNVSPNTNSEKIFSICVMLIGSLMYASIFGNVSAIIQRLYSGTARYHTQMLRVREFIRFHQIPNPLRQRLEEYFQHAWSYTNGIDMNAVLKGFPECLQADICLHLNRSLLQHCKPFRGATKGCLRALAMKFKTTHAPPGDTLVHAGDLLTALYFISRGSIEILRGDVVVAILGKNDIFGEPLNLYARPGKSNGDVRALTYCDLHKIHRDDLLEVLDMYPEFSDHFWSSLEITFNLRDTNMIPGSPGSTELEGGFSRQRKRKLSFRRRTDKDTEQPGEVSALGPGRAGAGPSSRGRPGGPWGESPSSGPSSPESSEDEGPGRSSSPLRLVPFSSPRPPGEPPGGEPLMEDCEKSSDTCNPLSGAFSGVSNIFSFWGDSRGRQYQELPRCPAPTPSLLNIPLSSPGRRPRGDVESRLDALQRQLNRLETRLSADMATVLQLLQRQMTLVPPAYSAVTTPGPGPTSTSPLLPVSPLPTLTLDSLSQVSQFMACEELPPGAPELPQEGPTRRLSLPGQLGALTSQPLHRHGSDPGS

SMILES | hERG current change (%, negative = inhibition) at 1uM [%]
CN1CCN(c2ccccc2NC(=O)C(Cc2ccccc2)n2cccc2)CC1 (centres unmarked) | -26.5
COc1cccc(-c2nc(-c3ccc(C(=O)O)cc3)no2)c1 | 3.03
O=C(CSc1nc2ncccc2[nH]1)Nc1ccc2c(c1)OCO2 | 15.5
CCOc1ccc(CCNC(=O)CCNC(=O)c2ccccc2Cl)cc1OCC | 15.6
COCCN1CCN(C(=O)c2ccc3nc(Cc4ccc(OC)c(OC)c4)oc3c2)CC1 | 8.43
N=c1c(C(=O)NCc2ccc(F)cc2)cc2c(=O)n3ccccc3nc2n1Cc1ccco1 | -85
Cc1cc(C)n(CC(O)Cn2c3ccc(Cl)cc3c3cc(Cl)ccc32)c(=O)n1 (centres unmarked) | 11.6
O=[N+]([O-])c1ccc(N2CCN(c3ccc(F)cc3)CC2)cn1 | -3.93
CN(CC(=O)Nc1ccc(Cl)c(C(F)(F)F)c1)C(=O)Cc1n[nH]c(=O)c2ccccc12 | -1.77
O=C(N/N=C/c1cccs1)c1cc(-c2ccc(Cl)s2)[nH]n1 | 13.4
CCCCn1c(=O)cc(C)n(-c2ccccc2)c1=O | 10.5
Cc1ccc(CCNC(=O)C2CCC(=O)N2C2CCCC2)cc1 (centres unmarked) | 7.19
CCOC(=O)NC(=S)Nc1cccc(NC(=S)NC(=O)OCC)c1 | 12.3
CC(=O)Nc1ccc(C(=O)N/N=C/c2ccc(F)cc2)cc1 | -4.54
COC(=O)[C@@H](NC(=O)N1CCN(C(=O)C2COc3ccccc3O2)CC1)C(C)C (some centres unmarked) | 6.31
CCOc1ccc(-c2cc(NC(=O)Cn3ncc4c3-c3ccccc3OC4)on2)cc1OCC | 18.6
CC(=O)NC(CC(=O)NC12CC3CC(CC(C3)C1)C2)c1ccccc1 (centres unmarked) | 7.87
Oc1ccc(Nc2nc(-c3cccs3)cs2)cc1 | 4.08
COc1cc2c(CCNC(C)=O)c[nH]c2cc1Cl | 12.4
COc1ccc(CCNc2oc(COc3ccccc3F)nc2C#N)cc1OC | 12.5
O=C(Cn1ncc2c1-c1ccccc1OC2)Nc1ccc(S(=O)(=O)N2CCCCC2)cc1 | 14
Cc1ccc(CNC(=O)C(=O)c2cn(CC(=O)N3CCOCC3)c3ccccc23)cc1 | 7.29

SMILES | hERG current change (%, negative = inhibition) at 1uM [%]
CCN(CC)CCCNC1=C(Cl)C(=O)c2ccccc2C1=O | -0.29
O=C(NCc1ccccn1)c1cccc([N+](=O)[O-])c1 | 4.66
CCc1sc(C(=O)NC(C)C2CCCO2)cc1Br (centres unmarked) | 4.86
Cc1ccc(N2C(=O)C3C4C=CC(C4)C3C2=O)cc1C (centres unmarked) | 11.7
CC(Cc1ccccc1)NCC(=O)Nc1cc(N(C)C)nc2ccccc12.O=C(O)C(=O)O (centres unmarked) | -73.5
CCN(CC)CCN1C(=O)C(=O)/C(=C(/O)c2cccc(OC)c2)C1c1ccccn1 (centres unmarked) | 8.19
CCNC(=O)CC1C(=O)N(c2ccccc2)C(=O)N1CCc1ccc(OC)cc1 (centres unmarked) | -2.06
CC(=O)Nc1ccc(SC[C@H](Cc2ccccc2)N2CC[C@@H](O)CCC2=O)cc1 | 5.62
O=Cc1ccccc1-n1cncn1 | 8.15
COc1ccc([N+](=O)[O-])cc1N(CC(=O)NCCC1=CCCCC1)S(C)(=O)=O | 8.48
NNC(=O)c1nc[nH]c1C(=O)Nc1ccc(Cl)cc1C(=O)c1ccccc1 | 18.5
Cc1cc(C(=O)CSc2n[nH]c(N)n2)c(C)n1-c1cc(F)ccc1F | 8.95
COc1ccc(Cc2nnc(NS(=O)(=O)Cc3ccccc3)s2)cc1 | 12.2
CCCn1cc(S(=O)(=O)CC(=O)Nc2ccc(OC)cc2OC)c2ccccc21 | 3.17
CC(=O)C1C(c2ccc([N+](=O)[O-])cc2)C2C(C)=NN=C2CC1(C)O (centres unmarked) | 8.33
CC(=O)C1=C(C)Nc2ncnn2C1c1ccc(O)cc1 (centres unmarked) | 11.5
COc1ccc2cc(C#N)c(NC(C)C)nc2c1 | 20.5
CC(C)c1ccc(-c2nnn(CCC(=O)O)n2)cc1 | 7.5
Cc1ccc(CN2CCN(Cc3cc4ccccc4o3)CC2CCO)cc1 (centres unmarked) | -12.5
O=C1SC(SCc2ccccc2)=N/C1=C\c1ccco1 | 5.9
O=C(O)CSCCOc1ccc(OCCSCC(=O)O)cc1 | 6.56
O=C(c1ccc(S(=O)(=O)N2CCCCCC2)cc1)N1CCC(CN2C(=O)c3cccc4cccc(c34)C2=O)CC1 | 6.64

Reference: paper PMC4336329 (PLoS ONE, 2015)
